Paper PMC5608968 (Cell Reports, 2017)

Target: T1, FLAG-hPIASxα (human, UniProt O75928-2 1-572)
T1 construct: also called PIAS2; source: 293T, transfected, immobilised on anti-FLAG beads
Assay: pull-down
Settings: both partners purified

B1: Recombinant human His-SUMO1 (natural protein)
chain: not shown
notes: also called 6X-His tagged SUMO1; purified SUMO1; source: bought: Boston Biochem (UL-715)
Question: Does B1 bind?
Answer: binds
